The supplement of paper PMC4166925
± gives the standard deviation of the averaged measurements. The full ranking holds about 33,000 sequences; the median of “E-score (dimensionless, -0.5 to 0.5)” is about -0.049, and the highest 2% start at about 0.37. The list shows a part of the results.

System: T1, PmTbr T-box DNA-binding domain (GST fusion)
T1 sequence: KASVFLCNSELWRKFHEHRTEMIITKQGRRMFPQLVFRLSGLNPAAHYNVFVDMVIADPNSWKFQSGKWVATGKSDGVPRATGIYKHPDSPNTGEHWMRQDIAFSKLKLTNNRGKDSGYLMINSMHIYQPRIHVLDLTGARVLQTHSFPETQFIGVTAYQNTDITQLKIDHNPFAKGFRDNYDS
Test: PBM E-score of 8-mer (E-score (dimensionless, -0.5 to 0.5)); Tbr is Tbrain of the sea star Patiria miniata (Pm) or the sea urchin Strongylocentrotus purpuratus (Sp); higher = stronger binding preference; most listed sequences are background and not binding sites
Details: the construct has about 5 more residues each side
Experimental: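 Universal protein-binding microarray (Agilent AMADID 016060, 60-bp probes with a 35-bp variable region) incubated with 200 nM GST-fused Patiria miniata Tbr T-box DNA-binding domain (residues 272-466) in PBS pH 7.5. Scored for every ungapped 8-mer (given with its reverse complement) by the Universal PBM Analysis Suite as E-score (modified Wilcoxon-Mann-Whitney enrichment, range -0.5 to 0.5; >0.45 counts as bound) and Z-score of median probe intensity. Two replicate arrays (datasets 1 and 2).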
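Further: 200 nM protein in PBS on universal arrays averaged over duplicate arrays.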

Sequence | PBM E-score of 8-mer
AAGTGTGG | 0.3837 ± 0.00044
ATCACACA | 0.418 ± 0.01
CATCGACA | 0.202 ± 0.04
CGGGAACG | -0.0131 ± 0.032
ACCCCGAG | 0.0296 ± 0.023
AGGCCTGC | -0.202 ± 0.013
AGTCCTCG | -0.164 ± 0.087
GGAGCGGA | -0.17 ± 0.046
TGATCAAA | -0.217 ± 0.15
ATAGTAAA | -0.256 ± 0.014
CAACCCGG | -0.111 ± 0.05
GAAATAGC | 0.206 ± 0.06
CCAGTCAC | 0.113 ± 0.011
CTGCGGCA | 0.0147 ± 0.0018
CGTTACCC | 0.152 ± 0.013
AACCGCCA | 0.00671 ± 0.1
GACGTACA | 0.0446 ± 0.026
GTTTCAGA | -0.18 ± 0.083
AGCGAGCC | -0.0788 ± 0.064
AGAGAGTC | -0.204 ± 0.036
ACCCAAGA | -0.0386 ± 0.041
CCGTCGGC | -0.0171 ± 0.053
AAAATTGC | 0.0481 ± 0.11
CAATGGTG | 0.22 ± 0.027
ATGGTTCC | -0.299 ± 0.042

Sequence | PBM E-score of 8-mer
GTGGGAGA | 0.0219 ± 0.0053
CGACCGAG | -0.0839 ± 0.0083
CAACTTGC | 0.225 ± 0.025
CATCGAGA | 0.142 ± 0.095
CGCGCACA | 0.0752 ± 0.002
AAAATGTC | 0.0857 ± 0.051
AGCTCTGG | -0.121 ± 0.14
ATGCTAAC | 0.0631 ± 0.061
ACTCCGAC | -0.0585 ± 0.0096
AGACCGCT | -0.0767 ± 0.028
CCACCTAA | 0.146 ± 0.058
CTCAGAAG | -0.162 ± 0.0033
ACGGGTGG | 0.0219 ± 0.074
CATAACAA | 0.0483 ± 0.038
AACGGAGC | 0.00505 ± 0.0014
CCCCGTAC | -0.0367 ± 0.049
GGCTGCCA | 0.124 ± 0.029
CACACGTC | 0.4359 ± 0.0027
AAGTCACT | -0.056 ± 0.057
CAGATGTC | -0.0861 ± 0.049
ACTCCCGG | -0.111 ± 0.059
CCTCCCTA | -0.0941 ± 0.083
CTCAGCTC | -0.0697 ± 0.016
GATGGAGA | -0.177 ± 0.055
ATGACAGC | 0.0891 ± 0.025

Sequence | PBM E-score of 8-mer
GAGGAAGC | -0.0945 ± 0.037
ACGGGGCC | -0.169 ± 0.023
CTTTAAGC | -0.207 ± 0.0037
CTCGATCC | -0.201 ± 0.07
CTCTACCC | -0.178 ± 0.056
AAGATCTC | 0.061 ± 0.054
GGGAACAC | 0.196 ± 0.023
AATACTAG | -0.0965 ± 0.039
CGACCAAC | 0.00547 ± 0.043
AGACACCG | 0.185 ± 0.012
ACCCATGC | -0.00508 ± 0.025
TCATCAGA | 0.0324 ± 0.023
GGTGGTAC | 0.2008 ± 0.0013
AACCAACG | 0.0666 ± 0.046
TATTTCGA | 0.061 ± 0.0057
GGTGAGTA | 0.161 ± 0.095
AGCAGCGC | -0.00444 ± 0.031
AGTAGCAA | 0.05 ± 0.025
CAAAACCC | -0.00717 ± 0.06
CCAGCGTC | 0.0729 ± 0.014
CACTCATC | 0.144 ± 0.018
CGCGCCAC | 0.311 ± 0.013
AGACCCAA | -0.13 ± 0.028
GTGGAAAA | -0.0396 ± 0.017
GTGCGAAA | 0.4814 ± 0.0014

Sequence | PBM E-score of 8-mer
AGACCACG | -0.117 ± 0.06
AAACAAGA | -0.26 ± 0.028
AGGACTTC | -0.126 ± 0.085
CATCTTCG | -0.00766 ± 0.071
GTCACTGA | 0.102 ± 0.0023
ACATGCCT | -0.23 ± 0.07
ATTCTGAG | -0.131 ± 0.012
TATTGTCA | 0.247 ± 0.063
ATTTCACA | 0.426 ± 0.013
ACCGCCGA | 0.013 ± 0.028
CTTACAAA | -0.206 ± 0.034
CGCGATCC | 0.174 ± 0.033
GACAATGC | 0.141 ± 0.0033
GAGATCCA | 0.0448 ± 0.055
ACACGAAA | 0.00596 ± 0.031
ACGGTGCG | 0.309 ± 0.042
GTCAATTA | 0.0505 ± 0.064
TAGTTATA | -0.136 ± 0.053
AGAGATTC | -0.0734 ± 0.013
GGCAACAA | 0.05 ± 0.0035
AATTCCGA | -0.0769 ± 0.11
AGATCTGG | -0.0878 ± 0.0096
CAGTCAGA | -0.202 ± 0.038
CCGTATAA | -0.051 ± 0.054
CCGGGGGC | -0.17 ± 0.076

Sequence | PBM E-score of 8-mer
ACAGAGCT | -0.185 ± 0.011
GACTATAC | -0.22 ± 0.0026
ACGTTTTA | -0.0207 ± 0.11
TACCTTAA | -0.0928 ± 0.11
ACAAATAG | 0.0659 ± 0.036
CCCGTTTA | -0.0803 ± 0.023
CACCCCAA | 0.212 ± 0.061
AAATCGTT | -0.182 ± 0.0032
CCCTGCCA | 0.0151 ± 0.031
CCAGGCAG | -0.0508 ± 0.1
GGTATTGA | -0.0741 ± 0.0033
AATACACT | -0.0504 ± 0.12
GCCTTTAC | -0.163 ± 0.021
GGTCTATA | -0.295 ± 0.034
GTTGGGCA | 0.0207 ± 0.14
CTTGCCAC | 0.285 ± 0.0097
AGTGCTTA | -0.00539 ± 0.017
AGTGGGCC | -0.0657 ± 0.11
GTGTAAAA | 0.341 ± 0.081
CTCCTATC | -0.0475 ± 0.024
ATGCGGGA | -0.203 ± 0.036
ATTTTAAA | -0.142 ± 0.01
AAGTAGGT | 0.196 ± 0.023
CGGATTGC | -0.0928 ± 0.0017
AGCGCAAC | -0.048 ± 0.051

Sequence | PBM E-score of 8-mer
CACTTCAC | 0.396 ± 0.012
ATGTTCTG | -0.239 ± 0.034
CCATTCCG | -0.0325 ± 0.04
TCAAACAA | -0.149 ± 0.021
CTTTGAAC | -0.124 ± 0.068
AAGTCAAG | -0.0506 ± 0.0047
GCATTAGC | 0.2357 ± 0.0015
CGGTCGAA | -0.207 ± 0.015
ATTCTCCC | -0.298 ± 0.045
GGACCTCC | -0.342 ± 0.023
CAGTCTGA | -0.167 ± 0.034
GGGTACCA | 0.0554 ± 0.01
ATCGCCTA | 0.126 ± 0.056
ACAGAGTA | 0.0142 ± 0.0068
GAGAAATA | 0.0157 ± 0.063
AATAAGGC | -0.103 ± 0.017
ATCCAGAA | -0.124 ± 0.038
ATTAAGAA | -0.301 ± 0.0034
AGACAACG | 0.0232 ± 0.016
CGGATGAG | -0.151 ± 0.044
ACGGTAGA | -0.125 ± 0.024
AATTATAC | -0.0508 ± 0.085
AAAAGAGA | 0.11 ± 0.028
CCTACACA | -0.00547 ± 0.098
ACCCATCG | 0.0896 ± 0.017

Sequence | PBM E-score of 8-mer
ACTTTGCG | 0.156 ± 0.028
ATGAGCAG | -0.0322 ± 0.034
ACCATCCG | -0.186 ± 0.022
TCAGCTGA | -0.191 ± 0.084
ATGCCGGG | -0.225 ± 0.029
AACTTTGC | 0.12 ± 0.062
CGAGTTTA | 0.157 ± 0.045
GTTGCTTA | -0.148 ± 0.055
AACATCCG | -0.0527 ± 0.016
GCGTGTTA | 0.336 ± 0.036
AAACCGAA | -0.0831 ± 0.077
CCAAATTA | -0.086 ± 0.049
CCCTAACG | -0.0582 ± 0.031
CCACTTTA | 0.0964 ± 0.014
CTGAGGTA | -0.0413 ± 0.017
ACACATAT | 0.386 ± 0.0052
CACTAAGG | 0.0849 ± 0.023
CAATGACC | -0.18309 ± 5.7e-05
GCGTGATA | 0.329 ± 0.01
AATAGCCG | -0.0594 ± 0.04
AAAGTGCC | 0.199 ± 0.067
CATTGTTC | -0.175 ± 0.0042
